# Out of some 360,000 compounds screened, about 17,000 (4.7%) were called active. Inconclusive results, whose numbers are uncertain, are shown with a selection of clear calls. No stated cut-off is given here; in the data, active means activity change below about -50%; inconclusive means mostly about -30% to -49%; inactive means weaker than that.
# Assay: qHTS for Inhibitors of Inflammasome Signaling: IL-1-beta AlphaLISA Primary Screen
# Settings: THP-1 LPS/ATP IL-1B secretion, 16 h; at 57.5 µM, stronger effect = lower value
# In short: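 Secreted IL-1B measured by AlphaLISA bead assay after 16 h compound exposure of THP-1 cells; compounds (final up to 57.5 uM) added 1 h before LPS (250 ng/mL) and ATP (1.25 mM) stimulation; lower signal means less secretion.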
# On the % scale 0 is the no-effect control and ±100 the full control effect.
row,Compound,activity change
1,N#Cc1ccccc1COC(=O)c1cc(S(=O)(=O)N2CCOCC2)ccc1F,inconclusive: -39%
2,CCc1ccc(-c2cc(C)no2)cc1S(=O)(=O)N1CCN(c2ccccc2OC)CC1,inactive: -1.31%
3,CCO[C@@H]1OC(C(=O)NCc2ccccc2)=C[C@H](c2cn(C(C)=O)c3ccccc23)[C@H]1CCCO,active: -53.5%
4,COc1ccc(CCN2C(=O)c3[nH]nc(-c4ccccc4O)c3C2c2ccccc2)cc1OC (stereo not given),inconclusive: -36.6%
5,COC(=O)/C(=C\Nc1ccc(Cl)cc1Cl)NC(=O)c1ccc(Cl)cc1Cl,inconclusive: -41.6%
6,CCOC(=O)N1CCN(C(=O)c2oc3ccc(S(=O)(=O)N4CC(C)CC(C)C4)cc3c2C)CC1 (stereo not given),inconclusive: -30.3%
7,OC(COC(c1ccccc1)c1ccccc1)CN1CCCCC1 (stereo not given),inconclusive: -33.4%
8,Cc1cc(O)c(NC(=O)c2cc([N+](=O)[O-])ccc2Cl)cc1C,active: -84%
9,COc1cccc(C2=NC(C)(C)NC(c3ccccc3O)C2)c1 (stereo not given),inconclusive: -49.7%
10,CN(C(=O)c1cccc(NC(=O)Cc2cccc(NC(=O)C3CCN(C(=O)C4CCCCC4)CC3)c2)c1)C1CC1,inactive: 29.2%
11,Cc1cccc(Oc2ccc(C(=O)NC3CCSC3=O)cn2)c1C (stereo not given),inconclusive: -39%
12,COc1ccc(NC(=O)C#Cc2ccccc2)cc1OC,active: -70.8%
13,COc1ccc(NC(=O)C(=O)N/N=C/c2cc(C)n(-c3cccc(Cl)c3Cl)c2C)c(OC)c1,inconclusive: -41.1%
14,CC(C)(C)c1ccc(-n2ncc3c2CCCC3NC(=O)C2(C(N)=O)CC2)cc1 (stereo not given),inconclusive: -38.4%
15,CC1CCc2cc(F)ccc2N1C(=O)CSc1nnc2c(n1)[nH]c1ccccc12 (stereo not given),inconclusive: -33.2%
16,O=S(=O)(c1ccccc1)n1ccc(-c2cnc(-c3ccccc3)s2)n1,inconclusive: -32.3%
17,O=S(=O)(CCn1cccc1)CCn1cccc1,inconclusive: -39.8%
18,COc1ccc(NC(=S)Nc2nc(CC(=O)Nc3ccccc3OC)cs2)cc1,inconclusive: -33%
19,Cc1ccccc1NNC(N)=S,inconclusive: -36.7%
20,COc1ccc(CNC(=O)CCC(=O)c2ccc(C)cc2)cc1OC,inactive: 11.2%
21,CC(=O)NCCc1ccc(S(=O)(=O)Nc2ccc(C)c(S(=O)(=O)N3CCOCC3)c2)cc1,inconclusive: -39.6%
22,Cn1nc(C(F)(F)F)c(/C=N/OC(=O)c2ccccc2)c1Sc1ccc(Cl)cc1,inconclusive: -37.6%
23,O=[N+]([O-])c1ccc(Sc2ccc(F)cc2)nc1,inconclusive: -49%
24,O=C(c1ccccc1)c1ccc(-c2ccc(O)cc2)cc1,active: -80.5%
25,Cc1cccc(N(Cc2cc3ccccc3[nH]c2=O)C(=O)c2cccs2)c1,inconclusive: -33.1%
26,Cc1ccc(S(=O)(=O)NCC(c2cccnc2)N2CCN(Cc3ccccc3)CC2)cc1 (stereo not given),inactive: -9.58%
27,CCC(=O)N1CCC2(CC1)Oc1ccc(Cl)cc1C(=O)C21CC(c2ccc(Cl)cc2)=NO1 (stereo not given),inconclusive: -43.8%
28,CN(C)CCCN(C(=O)c1ccc(S(=O)(=O)N(C)Cc2ccccc2)cc1)c1nc2cc3c(cc2s1)OCO3,active: -51.4%

row,Compound,activity change
1,CCCCC[C@H]1CN(CCc2ccccc2)C(=O)[C@@H]1CC(=O)NCc1ccc(OC)cc1,active: -78.3%
2,O=C(Nc1ccccc1)NC1CCN(Cc2c(F)cccc2Cl)CC1,inconclusive: -43.3%
3,COc1ccc(NC(=O)C2CCCN(C(=O)c3ccc(Cl)cc3)C2)cc1Cl (stereo not given),inconclusive: -44.6%
4,Cc1cc(Br)ccc1SCC(=O)N1CCN(S(=O)(=O)c2ccccc2)CC1,inconclusive: -41.7%
5,CC(C)OC(=O)CSc1nc2ncc(Cl)cc2[nH]1,inconclusive: -37.4%
6,CC1(C)CC[C@]2(C(=O)O)CC[C@]3(C)C(=CC[C@@H]4[C@@]5(C)CC[C@H](O)C(C)(C)[C@@H]5CC[C@]43C)[C@@H]2C1,inactive: 25.9%
7,Cc1ccc(Nc2nc(N)nc(-c3oc4ccccc4c3C)n2)cc1,inactive: 53.6%
8,CNCC(O)CN(c1ccccc1)c1ccccc1 (stereo not given),inconclusive: -36%
9,COc1ccc2c(CC(=O)O)cc(=O)oc2c1,inconclusive: -37.2%
10,COc1cc(CNC(C)(C)C)cc(Br)c1OCc1cccs1,inconclusive: -43.2%
11,O=C(Nc1ccccc1)N1CCN(c2ccc(C(F)(F)F)cn2)CC1,inconclusive: -33.2%
12,C(=N\Nc1nc2ccccc2[nH]1)/c1ccc2c(c1)OCO2,inconclusive: -37.5%
13,CCO[C@@H]1OC(C(=O)NCc2nc3ccccc3[nH]2)=C[C@H](C)[C@H]1CCCO,inactive: 16.5%
14,O=C(N/N=C/c1ccc(C(=O)O)cc1)C1=NNC(c2ccccc2)(c2ccccc2)C1,inactive: 6.03%
15,COCCNc1nc(NCc2cc(-c3ccc(OC)cc3)no2)c2sccc2n1,inconclusive: -36%
16,OC(CN1CCN(c2ccccc2F)CC1)c1ccc(F)cc1 (stereo not given),inactive: 10.4%
17,CCCC[n+]1c2ccccc2cc2ccccc21,active: -101%
18,COCc1[nH]nc2c1C(c1ccccc1F)C(C#N)=C(N)O2 (stereo not given),inconclusive: -47.3%
19,CCNC(=O)NC(=O)COC(=O)CCCc1nc2ccccc2s1,inactive: 8.63%
20,CC(C)c1ccc(/C=C2\Oc3c(ccc(O)c3CN3CCN(C)CC3)C2=O)cc1,inconclusive: -38.5%
21,COc1cc(/C=N/NC(=O)c2cc(-c3c(C)nn(-c4ccccc4)c3C)n[nH]2)ccc1O,inactive: -29.2%
22,CCOC(=O)NN=C1CN(S(=O)(=O)c2ccc(C)cc2)C1,inactive: 11.3%
23,CCOc1ccccc1CN1CCN(Cc2cc3ccccc3[nH]2)CC1CCO (stereo not given),inconclusive: -44.3%
24,CC1C(=O)N2CCCc3cc(NC(=O)c4ccccc4C(F)(F)F)cc1c32 (stereo not given),inactive: 23.8%
25,CC(C)OC(=O)CSc1nnc(-c2ccccc2)n1N,inconclusive: -34%
26,CCS(=O)(=O)N1CCN(c2ccc([N+](=O)[O-])c(NC(C)c3ccccc3)c2)CC1 (stereo not given),inconclusive: -39.9%
27,CN(C)CCCN(C(=O)CCc1ccccc1)c1nc2c(F)cccc2s1,inconclusive: -43.4%
